From PMC2838797
These are yes or no findings as the source states them, for the method shown. In cells and extracts the contact can be indirect. Some entries that bind do so weakly or less than the wild type. For part of these data: Tags and fused reporters may be left off the sequences shown.

Amino acid sequences for entries named in this document (tags omitted). A change or cut given only in a name is not applied to a line headed by its entry.
UniProt Q16665: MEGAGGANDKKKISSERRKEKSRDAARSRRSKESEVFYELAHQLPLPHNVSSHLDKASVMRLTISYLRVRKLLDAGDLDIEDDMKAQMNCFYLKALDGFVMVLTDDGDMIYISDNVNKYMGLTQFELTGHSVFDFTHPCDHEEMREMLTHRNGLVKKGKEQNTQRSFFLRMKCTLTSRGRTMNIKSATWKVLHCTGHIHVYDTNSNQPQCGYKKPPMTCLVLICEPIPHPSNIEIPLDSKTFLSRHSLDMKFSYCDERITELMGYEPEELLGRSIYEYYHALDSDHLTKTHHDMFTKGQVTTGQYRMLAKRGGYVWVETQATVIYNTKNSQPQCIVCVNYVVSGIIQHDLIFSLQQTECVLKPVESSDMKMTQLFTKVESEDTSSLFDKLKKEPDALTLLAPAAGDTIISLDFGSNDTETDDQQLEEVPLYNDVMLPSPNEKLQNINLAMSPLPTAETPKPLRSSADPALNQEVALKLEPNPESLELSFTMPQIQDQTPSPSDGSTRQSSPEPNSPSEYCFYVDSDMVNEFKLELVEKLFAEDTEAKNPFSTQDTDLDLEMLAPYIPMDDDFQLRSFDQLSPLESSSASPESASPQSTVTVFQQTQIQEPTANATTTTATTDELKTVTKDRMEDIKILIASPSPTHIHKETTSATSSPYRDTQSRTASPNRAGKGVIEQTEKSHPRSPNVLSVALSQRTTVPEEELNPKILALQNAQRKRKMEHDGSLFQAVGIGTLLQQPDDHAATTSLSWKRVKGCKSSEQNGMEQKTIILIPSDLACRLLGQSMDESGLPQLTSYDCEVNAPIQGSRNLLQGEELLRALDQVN
UniProt P40337: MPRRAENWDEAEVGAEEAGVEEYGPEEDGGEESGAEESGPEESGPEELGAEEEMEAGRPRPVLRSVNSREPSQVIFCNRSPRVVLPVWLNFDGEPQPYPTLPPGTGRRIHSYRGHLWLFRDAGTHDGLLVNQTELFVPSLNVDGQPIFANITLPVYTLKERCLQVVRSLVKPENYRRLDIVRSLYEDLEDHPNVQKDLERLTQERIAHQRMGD

B1: FLAG-PIASy (full length PIASy) (enzyme, UniProt Q8N2W9 1-510)
chain: MAAELVEAKNMVMSFRVSDLQMLLGFVGRSKSGLKHELVTRALQLVQFDCSPELFKKIKELYETRYAKKNSEPAPQPHRPLDPLTMHSTYDRAGAVPRTPLAGPNIDYPVLYGKYLNGLGRLPAKTLKPEVRLVKLPFFNMLDELLKPTELVPQNNEKLQESPCIFALTPRQVELIRNSRELQPGVKAVQVVLRICYSDTSCPQEDQYPPNIAVKVNHSYCSVPGYYPSNKPGVEPKRPCRPINLTHLMYLSSATNRITVTWGNYGKSYSVALYLVRQLTSSELLQRLKTIGVKHPELCKALVKEKLRLDPDSEIATTGVRVSLICPLVKMRLSVPCRAETCAHLQCFDAVFYLQMNEKKPTWMCPVCDKPAPYDQLIIDGLLSKILSECEDADEIEYLVDGSWCPIRAEKERSCSPQGAILVLGPSDANGLLPAPSVNGSGALGSTGGGGPVGSMENGKPGADVVDLTLDSSSSSEDEEEEEEEEEDEDEEGPRPKRRCPFQKGLVPAC
B2: FLAG-PIASy1-415 (domain or fragment, UniProt Q8N2W9 1-415)
chain: MAAELVEAKNMVMSFRVSDLQMLLGFVGRSKSGLKHELVTRALQLVQFDCSPELFKKIKELYETRYAKKNSEPAPQPHRPLDPLTMHSTYDRAGAVPRTPLAGPNIDYPVLYGKYLNGLGRLPAKTLKPEVRLVKLPFFNMLDELLKPTELVPQNNEKLQESPCIFALTPRQVELIRNSRELQPGVKAVQVVLRICYSDTSCPQEDQYPPNIAVKVNHSYCSVPGYYPSNKPGVEPKRPCRPINLTHLMYLSSATNRITVTWGNYGKSYSVALYLVRQLTSSELLQRLKTIGVKHPELCKALVKEKLRLDPDSEIATTGVRVSLICPLVKMRLSVPCRAETCAHLQCFDAVFYLQMNEKKPTWMCPVCDKPAPYDQLIIDGLLSKILSECEDADEIEYLVDGSWCPIRAEKERSC
B3: FLAG-PIASy1-461 (domain or fragment, UniProt Q8N2W9 1-461)
chain: MAAELVEAKNMVMSFRVSDLQMLLGFVGRSKSGLKHELVTRALQLVQFDCSPELFKKIKELYETRYAKKNSEPAPQPHRPLDPLTMHSTYDRAGAVPRTPLAGPNIDYPVLYGKYLNGLGRLPAKTLKPEVRLVKLPFFNMLDELLKPTELVPQNNEKLQESPCIFALTPRQVELIRNSRELQPGVKAVQVVLRICYSDTSCPQEDQYPPNIAVKVNHSYCSVPGYYPSNKPGVEPKRPCRPINLTHLMYLSSATNRITVTWGNYGKSYSVALYLVRQLTSSELLQRLKTIGVKHPELCKALVKEKLRLDPDSEIATTGVRVSLICPLVKMRLSVPCRAETCAHLQCFDAVFYLQMNEKKPTWMCPVCDKPAPYDQLIIDGLLSKILSECEDADEIEYLVDGSWCPIRAEKERSCSPQGAILVLGPSDANGLLPAPSVNGSGALGSTGGGGPVGSMENGKP
B4: endogenous PIASy (enzyme, UniProt Q8N2W9 1-510)
chain: B1 chain
B5: PIASy 1-492 with myc tag (enzyme, UniProt Q8N2W9 1-492)
chain: MAAELVEAKNMVMSFRVSDLQMLLGFVGRSKSGLKHELVTRALQLVQFDCSPELFKKIKELYETRYAKKNSEPAPQPHRPLDPLTMHSTYDRAGAVPRTPLAGPNIDYPVLYGKYLNGLGRLPAKTLKPEVRLVKLPFFNMLDELLKPTELVPQNNEKLQESPCIFALTPRQVELIRNSRELQPGVKAVQVVLRICYSDTSCPQEDQYPPNIAVKVNHSYCSVPGYYPSNKPGVEPKRPCRPINLTHLMYLSSATNRITVTWGNYGKSYSVALYLVRQLTSSELLQRLKTIGVKHPELCKALVKEKLRLDPDSEIATTGVRVSLICPLVKMRLSVPCRAETCAHLQCFDAVFYLQMNEKKPTWMCPVCDKPAPYDQLIIDGLLSKILSECEDADEIEYLVDGSWCPIRAEKERSCSPQGAILVLGPSDANGLLPAPSVNGSGALGSTGGGGPVGSMENGKPGADVVDLTLDSSSSSEDEEEEEEEEEDEDEE
B6: FLAG-PIAS3 (enzyme, UniProt Q9Y6X2 1-628)
chain: MAELGELKHMVMSFRVSELQVLLGFAGRNKSGRKHELLAKALHLLKSSCAPSVQMKIKELYRRRFPRKTLGPSDLSLLSLPPGTSPVGSPGPLAPIPPTLLAPGTLLGPKREVDMHPPLPQPVHPDVTMKPLPFYEVYGELIRPTTLASTSSQRFEEAHFTFALTPQQVQQILTSREVLPGAKCDYTIQVQLRFCLCETSCPQEDYFPPNLFVKVNGKLCPLPGYLPPTKNGAEPKRPSRPINITPLARLSATVPNTIVVNWSSEFGRNYSLSVYLVRQLTAGTLLQKLRAKGIRNPDHSRALIKEKLTADPDSEVATTSLRVSLMCPLGKMRLTVPCRALTCAHLQSFDAALYLQMNEKKPTWTCPVCDKKAPYESLIIDGLFMEILSSCSDCDEIQFMEDGSWCPMKPKKEASEVCPPPGYGLDGLQYSPVQGGDPSENKKKVEVIDLTIESSSDEEDLPPTKKHCSVTSAAIPALPGSKGVLTSGHQPSSVLRSPAMGTLGGDFLSSLPLHEYPPAFPLGADIQGLDLFSFLQTESQHYGPSVITSLDEQDALGHFFQYRGTPSHFLGPLAPTLGSSHCSATPAPPPGRVSSIVAPGGALREGHGGPLPSGPSLTGCRSDIISLD
B7: FLAG-PIASy1-233 (domain or fragment, UniProt Q8N2W9 1-233)
chain: MAAELVEAKNMVMSFRVSDLQMLLGFVGRSKSGLKHELVTRALQLVQFDCSPELFKKIKELYETRYAKKNSEPAPQPHRPLDPLTMHSTYDRAGAVPRTPLAGPNIDYPVLYGKYLNGLGRLPAKTLKPEVRLVKLPFFNMLDELLKPTELVPQNNEKLQESPCIFALTPRQVELIRNSRELQPGVKAVQVVLRICYSDTSCPQEDQYPPNIAVKVNHSYCSVPGYYPSNKPG

Legend:
HIF1α (pCEP4/HIF1α) = HIF1α (pCEP4/HIF1α) (UniProt Q16665); assay: co-IP; 786-O cells transfected with HIF1α, HA-VHL and FLAG-PIASy, 20 µM MG132 for 2 hr; IP with anti-HIF1α, immunoblot anti-HA, anti-HIF1α, anti-FLAG (Figure 5A)
[1] = target: HA-VHL (wild type von Hippel Lindau tumor suppressor with HA tag) (human) (UniProt P40337); assay: co-IP; HEK293 cells cotransfected, harvested 48 h posttransfection; RIPA lysates, IP and immunoblotting as indicated (Figures 2A, 2E, 4A)
[2] = target: endogenous VHL (human (endogenous in HEK293)) (UniProt P40337); assay: co-IP; endogenous proteins; IP targeting VHL, immunoblotting for PIASy; preclear with normal rabbit serum (Figure 2B)
[3] = target: FLAG-VHL (wild type) (human) (UniProt P40337); assay: co-IP; HEK293 cells cotransfected, harvested 48 h posttransfection; RIPA lysates, IP and immunoblotting as indicated (Figures 2A, 2E, 4A)
FLAG-VHL (K171R) (human) = FLAG-VHL (K171R) (human) (UniProt P40337); assay: as above

Binder	binding [1]	further results
B1	binds	binding (HIF1α (pCEP4/HIF1α)): no binding
B2	binds	–
B3	binds	–
B4	–	binding [2]: binds
B5	–	binding [3]: binds; binding (FLAG-VHL (K171R) (human)): binds
B6	no binding	–
B7	no binding	–
